According to PubChem BioAssay AID1030 (National Center for Advancing Translational Sciences (NCATS), 2008):
About 16,000 (7.3%) of roughly 220,000 compounds were called active. The inconclusive results got no clear call from the source; some entries with a clear call stand among them for comparison. The call rests on the fitted dose curve; in most records, active means well fitted inhibition curve with a large enough effect (not every such curve was filed as active); inconclusive means small, poorly fitted or top-dose-only effect, or another doubt; inactive means no such curve, though single readings can be large or run the other way. Where the call is inconclusive, the potency comes from a doubtful curve fit.

The molecules below were run against Aldehyde dehydrogenase 1A1 (Homo sapiens) (UniProt P00352) (assay: qHTS Assay for Inhibitors of Aldehyde Dehydrogenase 1 (ALDH1A1)). Details: Purified ALDH1A1, NADH fluorescence, propionaldehyde substrate; series mostly up to 75.3 µM; activity, negative = inhibition: at the top concentration.
Potency means the concentration at half of the fitted maximal effect; tags describe the fitted curve by direction and shape.
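Wherever activity, negative = inhibition is given: plate controls were no enzyme wells and a reference inhibitor.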

UniProt P00352, sequence (P00352 whole entry, looked up): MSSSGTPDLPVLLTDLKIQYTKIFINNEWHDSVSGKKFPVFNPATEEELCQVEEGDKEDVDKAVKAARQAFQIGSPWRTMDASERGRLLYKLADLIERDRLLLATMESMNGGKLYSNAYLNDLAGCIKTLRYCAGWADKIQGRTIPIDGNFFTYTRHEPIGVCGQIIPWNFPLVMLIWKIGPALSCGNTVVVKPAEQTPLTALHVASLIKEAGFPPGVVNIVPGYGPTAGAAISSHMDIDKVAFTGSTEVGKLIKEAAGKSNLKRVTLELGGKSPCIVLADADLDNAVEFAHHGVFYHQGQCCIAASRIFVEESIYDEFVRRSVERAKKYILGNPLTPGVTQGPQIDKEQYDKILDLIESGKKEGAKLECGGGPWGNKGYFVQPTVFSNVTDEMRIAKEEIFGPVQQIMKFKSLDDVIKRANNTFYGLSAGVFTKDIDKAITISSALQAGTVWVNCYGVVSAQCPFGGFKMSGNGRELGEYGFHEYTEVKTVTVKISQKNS

Potency, active:
Cc1cc(-c2csc(NC(=O)c3ccc(=O)[nH]c3)n2)c(C)n1Cc1ccco1 8.91 µM
COc1ccc(Br)cc1CN(C)C(C)C(=O)Nc1cccc(C(C)=O)c1 (centres undefined) 10 µM
COC(=O)c1ccc2c(=O)[nH]c(CN3c4ccccc4CC3C)nc2c1 (centres undefined) 11.2 µM
Cc1nn(-c2ccccc2)c2c1C1(C(=O)N3c4c(cccc41)C(C)CC3(C)C)C(C#N)=C(N)O2 (centres undefined) 0.251 µM
CCOC(=O)c1sc(S(C)=O)c2c1CCc1conc1-2 (centres undefined) 4.47 µM

Potency, inactive:
O=c1cc(-c2ccccc2Cl)oc2c([N+](=O)[O-])c(O)cc(O)c12

Potency, inconclusive:
Cc1ccc([N+](=O)[O-])c2c1C(N1CC(C)OC(C)C1)C(C)(C)O2 (centres undefined) 22.4 µM [inhibitor, partial curve]
Cc1ccc(CNC(=O)c2ccc(Cn3nc(C)c(Cl)c3C)o2)cc1 31.6 µM [inhibitor, single point]
Cc1[nH][nH]c(=O)c1C(c1ccc(-c2ccc(Cl)cc2Cl)o1)c1c(C)[nH][nH]c1=O 28.2 µM [inhibitor, single point]
CC(CCc1ccccc1)NC(=O)C1CCCN(C(=O)c2cc3sccc3n2C)C1 (centres undefined) 44.7 µM [inhibitor, single point]
Cc1nc2c(C(=O)NCCC3=CCCCC3)c[nH]n2c(=O)c1Cl 39.8 µM [inhibitor, single point]
Cc1ccc(C(=O)N/C(=C\c2cccs2)C(=O)NC2CCCCC2)cc1 39.8 µM [inhibitor, single point]
Oc1ccc2c(c1)oc1cc(O)ccc12 39.8 µM [inhibitor, single point]
Cc1ccc(-c2nnc(N3CCN(C(=O)CSc4ncn[nH]4)CC3)c3ccccc23)cc1 1.78 µM [inhibitor, full curve]
O=C(CCc1nnc(C2CCCCC2)o1)N1CCC(Oc2cccnc2)CC1 39.8 µM [inhibitor, single point]
O=c1c(-c2cc3ccccc3o2)[n+]([O-])c2ccccc2n1OCc1ccccn1 3.98 µM [inhibitor, single point]
OCCN1CCOCCOCCN(CCO)CCN(CCO)CC1 39.8 µM [inhibitor, single point]
COc1ccc(-c2nc3ccc(N4CCCC4)cc3c(=O)[nH]2)cc1OC 20 µM [inhibitor, partial curve]
Cc1cc(=O)n2nc(N3CCCC(C(=O)NCCCN4CCc5ccccc5C4)C3)sc2n1 (centres undefined) 25.1 µM [inhibitor, single point]
COc1ccc(S(=O)(=O)N2CCN(c3ccccc3)CC2)cc1 22.4 µM [inhibitor, single point]
O=C(O)C1CC=CCC1C(=O)NC1CCCCC1 (centres undefined) 28.2 µM [inhibitor, single point]
CC(=O)/C(=N\Nc1ccccc1)Oc1ccc([N+](=O)[O-])cc1 39.8 µM [inhibitor, single point]
Cc1c(C)c2ccc(OCc3ccc(C(=O)O)o3)c(C)c2oc1=O 22.4 µM [inhibitor, partial curve]
Cc1ccc(NC(=S)Nc2ccc3cn[nH]c3c2)cc1C 39.8 µM [inhibitor, single point]
O=C(COC(=O)c1cccc2ccccc12)Nc1cccnc1Cl 35.5 µM [inhibitor, single point]
COc1ccc(N2CCCn3c2nc2c3c(=O)n(CCc3ccccc3)c(=O)n2C)cc1 7.94 µM [inhibitor, partial curve]
COc1ccc(Cc2nnc(NS(=O)(=O)c3ccc(Cl)cc3)s2)cc1OC 17.8 µM [inhibitor, partial curve]

activity, negative = inhibition, inactive:
CCC(C)(C#CCN1CCCCC1)OC(C)=O (centres undefined) 11.6%
COc1ccc(S(=O)(=O)N2CCC(O)(c3cccnc3)CC2)cc1OC -1.19%
COCCn1c(=NC(=O)C(C)(C)C)sc2cc([N+](=O)[O-])ccc21 4.8%
CNC(=S)Nc1ccc(OC)c(OC)c1 9.74%
CC(C)CCNC(=O)c1ccc(-c2ccccc2)cc1 4.18%
CCN1C(=O)C2C(C1=O)N1C(c3cccs3)C3C(=O)N(CC)C(=O)C3N1C2c1cccs1 (centres undefined) 5.27%
O=S(=O)(Nc1nc2ccccc2nc1Nc1ccc2c(c1)OCCO2)c1cccs1 3.65%
CCOC(=O)c1c(NC(=O)C(Sc2ccccc2)c2ccccc2)sc(C(=O)N(C)C)c1C (centres undefined) -10.3%
CCOC(=O)C1=C(C)NC(C)=C(C(=O)OCCNC(=O)c2cccnc2)C1c1cccc([N+](=O)[O-])c1 (centres undefined) 3.17%
CN=C(C)/C(C(=O)OC)=C(/O)c1c(F)cccc1F -5.57%
CN1C(=O)CC(C(=O)O)SC1=Nc1ccc(F)cc1 (centres undefined) 2.44%
C[N+](C)(C)c1ncnc2c1ncn2[C@@H]1C[C@H](O)[C@@H](CO)O1 -2.23% [at 13.5 µM]
O=C(C(=O)N1CCOCC1)c1c[nH]c2ccccc12 30.8%
Cc1cc(NC(=O)c2cccnc2)ccc1NC(=O)c1ccco1 6.86%
O=C(O)c1[nH]c2ccccc2c1C=NCc1ccccc1Cl 4.55%
COc1ccc(NC(=O)COc2ccc(-c3nn(C)c(=O)c4ccccc34)cc2)cc1 16.5%
CC(=O)N(CN1C(=O)c2ccccc2C1=O)c1ccc2c(c1)oc1ccccc12 3.65%
O=C(NC1CCCC1)c1cnn2c(C(F)(F)F)cc(-c3ccc4c(c3)OCO4)nc12 -2.68%
CC(C)N=C1SC(CC(=O)Nc2ccccc2)C(=O)N1C(C)C (centres undefined) -2.07%
N#CCC(=O)c1sccc1-n1cccc1 -8.93%
NCC(=O)N[C@@H](CCCN=C(N)N)C(=O)NCC(=O)N[C@@H](CC(=O)O)C(=O)N[C@@H](CC(N)=O)C(=O)N1CC[C@@H](C(=O)O)C1 11.2%
C[C@@H](O)CNC(C)(C)CC(=O)N[C@@H]1CCc2ccccc2N(Cc2ccc(-c3ccccc3-c3nn[nH]n3)cc2)C1=O 4.69%
